Test results from article PMC9911399, “Two distinct binding modes provide the RNA-binding protein RbFox with extraordinary sequence specificity”.
Positions count from the first letter of the chain named. The list shows a part of the results.

T1: RBFOX1 RRM RbFoxmut (Fox-RRM*) (Homo sapiens, UniProt Q9NWB1 109-208, R118D;E147R;N151S;E152T)
T1 sequence: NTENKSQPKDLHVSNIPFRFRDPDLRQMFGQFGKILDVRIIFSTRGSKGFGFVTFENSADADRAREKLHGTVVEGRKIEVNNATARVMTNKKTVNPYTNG

B1: GCUCAAA (DNA:RNA)
RNA: GGGAGACCGGAAUUCAGAUUGUCCGCUCAAAUUAAAUCCCGUCGUAGCCACCA
DNA 1: CAATCTGAATTCCGGTCTCCC
DNA 2: TGGTGGCTACGACGGGATT
B2: UGCUUGG (DNA:RNA)
RNA: GGGAGACCGGAAUUCAGAUUGUCCUGCUUGGUUAAAUCCCGUCGUAGCCACCA
DNA 1: CAATCTGAATTCCGGTCTCCC
DNA 2: TGGTGGCTACGACGGGATT
B3: UAGGUGA (DNA:RNA)
RNA: B2 RNA with G26A, C27G, U28G, G31A
DNA 1: CAATCTGAATTCCGGTCTCCC
DNA 2: TGGTGGCTACGACGGGATT
B4: ACCGCCC (DNA:RNA)
RNA: B1 RNA with G25A, U27C, C28G, A29C, A30C, A31C
DNA 1: CAATCTGAATTCCGGTCTCCC
DNA 2: TGGTGGCTACGACGGGATT
B5: UGCGUAG (DNA:RNA)
RNA: B2 RNA with U28G, G30A
DNA 1: CAATCTGAATTCCGGTCTCCC
DNA 2: TGGTGGCTACGACGGGATT
B6: GUCUUUA (DNA:RNA)
RNA: B2 RNA with U25G, G26U, G30U, G31A
DNA 1: CAATCTGAATTCCGGTCTCCC
DNA 2: TGGTGGCTACGACGGGATT
B7: UUAAUUG (DNA:RNA)
RNA: B2 RNA with G26U, C27A, U28A, G30U
DNA 1: CAATCTGAATTCCGGTCTCCC
DNA 2: TGGTGGCTACGACGGGATT
B8: CUGCACU (DNA:RNA)
RNA: B1 RNA with G25C, C26U, U27G, A30C, A31U
DNA 1: CAATCTGAATTCCGGTCTCCC
DNA 2: TGGTGGCTACGACGGGATT
B9: UAAAGAU (DNA:RNA)
RNA: B1 RNA with G25U, C26A, U27A, C28A, A29G, A31U
DNA 1: CAATCTGAATTCCGGTCTCCC
DNA 2: TGGTGGCTACGACGGGATT
B10: CUCUGAA (DNA:RNA)
RNA: B1 RNA with G25C, C26U, U27C, C28U, A29G
DNA 1: CAATCTGAATTCCGGTCTCCC
DNA 2: TGGTGGCTACGACGGGATT
B11: AUUGGUC (DNA:RNA)
RNA: B1 RNA with G25A, C26U, C28G, A29G, A30U, A31C
DNA 1: CAATCTGAATTCCGGTCTCCC
DNA 2: TGGTGGCTACGACGGGATT
B12: UACCGUG (DNA:RNA)
RNA: B2 RNA with G26A, U28C, U29G, G30U
DNA 1: CAATCTGAATTCCGGTCTCCC
DNA 2: TGGTGGCTACGACGGGATT
B13: ACUGCUU (DNA:RNA)
RNA: B1 RNA with G25A, C28G, A29C, A30U, A31U
DNA 1: CAATCTGAATTCCGGTCTCCC
DNA 2: TGGTGGCTACGACGGGATT
B14: ACAGUAC (DNA:RNA)
RNA: B1 RNA with G25A, U27A, C28G, A29U, A31C
DNA 1: CAATCTGAATTCCGGTCTCCC
DNA 2: TGGTGGCTACGACGGGATT
B15: CUUUUAA (DNA:RNA)
RNA: B1 RNA with G25C, C26U, C28U, A29U
DNA 1: CAATCTGAATTCCGGTCTCCC
DNA 2: TGGTGGCTACGACGGGATT
B16: GUUCUUG (DNA:RNA)
RNA: B1 RNA with C26U, A29U, A30U, A31G
DNA 1: CAATCTGAATTCCGGTCTCCC
DNA 2: TGGTGGCTACGACGGGATT
B17: UGUACAG (DNA:RNA)
RNA: B2 RNA with C27U, U28A, U29C, G30A
DNA 1: CAATCTGAATTCCGGTCTCCC
DNA 2: TGGTGGCTACGACGGGATT
B18: UAUCGAG (DNA:RNA)
RNA: B1 RNA with G25U, C26A, A29G, A31G
DNA 1: CAATCTGAATTCCGGTCTCCC
DNA 2: TGGTGGCTACGACGGGATT
B19: AUAAUAG (DNA:RNA)
RNA: B2 RNA with U25A, G26U, C27A, U28A, G30A
DNA 1: CAATCTGAATTCCGGTCTCCC
DNA 2: TGGTGGCTACGACGGGATT
B20: AGUGCCA (DNA:RNA)
RNA: B1 RNA with G25A, C26G, C28G, A29C, A30C
DNA 1: CAATCTGAATTCCGGTCTCCC
DNA 2: TGGTGGCTACGACGGGATT

target: T1, RBFOX1 RRM RbFoxmut (Fox-RRM*); assay: EMSA; HiTS-Eq, 1 nM pool, 10 min; buffer printed only for the single-RNA assays: 10 mM Tris pH 7.5, 150 mM NaCl, 3.4 mM EDTA, 0.001% NP-40, 30 C; conditions: tags: His6 N-terminal (pET28a); label: 5' 32P
Outline: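 Purified RbFox RRM (wild type or mutant) was equilibrated for 10 min in 50 µL with 1 nM of a 5′-radiolabelled pool of RNA with 7 randomized nucleotides, its flanks annealed to DNA oligonucleotides, across increasing protein concentrations. Free RNA was separated by 8% native PAGE, excised, reverse-transcribed, PCR-barcoded and sequenced on an Illumina HiSeq 2500. Relative association constants came from read-count changes of each variant against the control reaction, normalised to the cognate motif.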

| Binder | binding signal |
| --- | --- |
| B1 | 0.0655 KA relative to UGCAUGU |
| B2 | 0.257 KA relative to UGCAUGU |
| B3 | 0.1 KA relative to UGCAUGU |
| B4 | 0.0828 KA relative to UGCAUGU |
| B5 | 0.151 KA relative to UGCAUGU |
| B6 | 0.106 KA relative to UGCAUGU |
| B7 | 0.108 KA relative to UGCAUGU |
| B8 | 0.0814 KA relative to UGCAUGU |
| B9 | 0.057 KA relative to UGCAUGU |
| B10 | 0.0887 KA relative to UGCAUGU |
| B11 | 0.143 KA relative to UGCAUGU |
| B12 | 0.097 KA relative to UGCAUGU |
| B13 | 0.0918 KA relative to UGCAUGU |
| B14 | 0.0903 KA relative to UGCAUGU |
| B15 | 0.0894 KA relative to UGCAUGU |
| B16 | 0.125 KA relative to UGCAUGU |
| B17 | 0.0724 KA relative to UGCAUGU |
| B18 | 0.101 KA relative to UGCAUGU |
| B19 | 0.137 KA relative to UGCAUGU |
| B20 | 0.101 KA relative to UGCAUGU |
